The antibiotic and cytotoxicity screens of Wong et al. (2023)
This is one part of the list.

Key:
HSkMC = human skeletal muscle cells; experiment: cytotoxicity call (relative viability < 0.9); settings: 10 µM
HepG2 = experiment: cytotoxicity call (relative viability < 0.9); settings: 10 µM
S. aureus RN4220 = experiment: growth inhibition call (relative growth <= 0.2); settings: 50 µM

Row | SMILES | cytotoxicity call (HSkMC) | cytotoxicity call (HepG2) | growth inhibition call (S. aureus RN4220)
1 | Cc1cn(-c2cc(NC(=O)c3ccc(C)c(Nc4nccc(-c5cccnc5)n4)c3)cc(C(F)(F)F)c2)cn1 | active | active | inactive
2 | O=C(C[C@@H]1CC[C@@H]2[C@H](COC[C@@H](O)CN2C(=O)Nc2ccc3c(c2)OCO3)O1)N1CCN(c2ccccc2)CC1 | inactive | inactive | inactive
3 | O=C(C[C@@H]1C[C@@H]2c3cc(NC(=O)c4ccc5c(c4)OCO5)ccc3O[C@@H]2[C@@H](CO)O1)NCCN1CCCCC1 | inactive | inactive | inactive
4 | O=c1c(O)cc(C2Oc3cc(O)cc(O)c3CC2O)cc2c(C3Oc4cc(O)cc(O)c4CC3O)cc(O)c(O)c12 (centres undefined) | inactive | inactive | inactive
5 | C[C@H](CO)N1C[C@H](C)[C@@H](CN(C)S(=O)(=O)c2ccc(C#N)cc2)OCc2cnnn2CCCC1=O | inactive | inactive | inactive
6 | CO[C@H]1CN(C)C(=O)c2cc(NC(=O)NC(C)C)ccc2OC[C@@H](C)N(Cc2ccc(-c3ccccn3)cc2)C[C@H]1C | inactive | inactive | inactive
7 | C=CCOC(=O)[C@H]1[C@@H]2C(=O)O[C@@H](c3ccccc3)[C@@H](c3ccccc3)N2[C@@H](c2ccc(OCCOC(=O)[C@@H]3C[C@@H]4C(=O)N[C@@H](CCCCNC(C)=O)C(=O)N4[C@@H]3c3ccc(O)cc3)cc2)[C@]12C(=O)Nc1ccccc12 | inactive | inactive | inactive
8 | Cc1noc(C)c1NC(=O)Nc1cccc2c1O[C@H](CN(C)S(=O)(=O)c1ccccc1)[C@H](C)CN([C@@H](C)CO)C2=O | inactive | inactive | inactive
9 | C[C@H](CO)N1C[C@H](C)[C@@H](CN(C)S(=O)(=O)c2cccc(F)c2)Oc2ncc(C#CC3(O)CCCC3)cc2C1=O | inactive | inactive | inactive
10 | C[C@@H]1CN([C@H](C)CO)S(=O)(=O)c2ccc(-c3ccncc3)cc2O[C@H]1CN(C)C(=O)c1ccc2c(c1)OCO2 | inactive | inactive | inactive
11 | COCC(=O)N1C[C@@H](C)[C@@H](OC)CN(C)C(=O)c2ccc(NC(=O)c3ccc(OC)cc3)cc2OC[C@H]1C | inactive | inactive | inactive
12 | CCNC(=O)C[C@H]1CC[C@@H](NC(=O)C2CCOCC2)[C@H](CO)O1 | inactive | inactive | inactive
13 | COc1ccc(NC(=O)N(C)C[C@@H]2Oc3ccc(NC(=O)C4CC4)cc3CC(=O)N([C@H](C)CO)C[C@@H]2C)cc1 | inactive | inactive | inactive
14 | OC[C@H]1O[C@@H](n2ncc3c(O)ncnc32)[C@H](O)[C@@H]1O | inactive | inactive | inactive
15 | Nc1nc(F)nc2c1ncn2C1OC(COP(=O)(O)O)C(O)C1O (centres undefined) | inactive | inactive | inactive
16 | CC(C)C#Cc1ccc2c(c1)O[C@H](CN(C)C(=O)c1cccc(F)c1)[C@H](C)CN([C@@H](C)CO)S2(=O)=O | inactive | inactive | inactive
17 | C[C@H]1CN([C@@H](C)CO)C(=O)Cc2cc(NC(=O)Cn3cnnn3)ccc2O[C@H]1CN(C)S(=O)(=O)c1ccc(F)cc1 | inactive | inactive | inactive
18 | COc1ccc(NC(=O)N(C)C[C@@H]2OCCCC[C@@H](C)Oc3ccc(NC(=O)c4ccccc4)cc3C(=O)N([C@H](C)CO)C[C@@H]2C)cc1 | inactive | inactive | inactive
19 | CC(C)(Oc1ccc(C(=O)c2ccc(Cl)cc2)cc1)C(=O)O | inactive | inactive | inactive
20 | C[C@H]1CN([C@@H](C)CO)S(=O)(=O)c2ccc(C#CCN(C)C)cc2O[C@H]1CN(C)Cc1ccccc1F | inactive | inactive | inactive
21 | COc1ccc(CN(C)C[C@@H]2OCCCC[C@H](C)Oc3ccc(NC(=O)Cc4ccccc4)cc3C(=O)N([C@H](C)CO)C[C@@H]2C)cc1 | inactive | inactive | inactive
22 | Cn1c(Cl)cnc1CO | inactive | inactive | inactive
23 | C[C@H]1CN([C@@H](C)CO)C(=O)c2cc(NC(=O)C3CC3)ccc2O[C@H]1CN(C)Cc1ccc(-c2ccccc2)cc1 | inactive | inactive | inactive
24 | COc1ccc(S(=O)(=O)Nc2cccc3c2O[C@H](CN(C)Cc2ccc(-c4ccccc4)cc2)[C@@H](C)CN([C@H](C)CO)C3=O)cc1 | inactive | active | inactive
25 | CCC(CC)[C@H](NC(C)=O)[C@@H]1[C@H](O)[C@@H](C(=O)O)C[C@H]1NC(=N)N | inactive | inactive | inactive
26 | CC(C)(C)c1ccc(NC(=O)N[C@H]2CCCc3ccccc32)cc1 | inactive | active | inactive
27 | C[C@@H]1CCCCO[C@@H](CN(C)C(=O)c2ccccc2)[C@@H](C)CN([C@H](C)CO)C(=O)c2cc(NS(=O)(=O)c3cccs3)ccc2O1 | inactive | inactive | inactive
28 | COc1ccc(S(=O)(=O)Nc2ccc3c(c2)C(=O)N([C@@H](C)CO)C[C@H](C)[C@@H](CN(C)C(=O)C2CCCCC2)OCCCC[C@@H](C)O3)cc1 | inactive | inactive | inactive
